# Data from PubChem BioAssay AID463173 (ICCB-Longwood Screening Facility, Harvard Medical School, 2010).
# About 4,300 (8.3%) of roughly 52,000 compounds were called active. Cut-off read from the data, not from the text of the source: active = survival mostly below about 52% (no sharp cut-off); inactive = mostly above about 56%. Some of the results follow.
# System: DeltatarO mutant
# Test: growth inhibition of S. aureus wild type versus tarO mutant, primary screen, teichoic acid synthesis inhibitors, RN4220, OD600 (AID 463173)
# Conditions: OD600, 18 h, hits give low values, screened at 18.75 µg/mL (by protocol)
row,Structure (SMILES),survival
1,NC(=S)NN=C1c2cc(S(=O)(=O)N3CCOCC3)ccc2-c2ccc(S(=O)(=O)N3CCOCC3)cc21,inactive: 94%
2,COc1ccc2c(CNCc3ccco3)c(C(=O)O)n(Cc3ccc(F)cc3Cl)c2c1,inactive: 96%
3,O=C(NCc1ccccc1Cl)c1ccc2c(c1)N(Cc1ccccc1)C(=O)c1ccccc1S2,inactive: 144%
4,CCOC(=O)c1[nH]c2ccccc2c1NC(=O)c1c(F)cccc1F,inactive: 79%
5,CCOC(=O)c1sc2ncn(CC(=O)Nc3cccc(C)c3)c(=O)c2c1C,inactive: 66%
6,C1CCC(Nc2nnnn2C2CCCCC2)CC1,inactive: 79%
7,COc1cccc(OCCCn2c(-c3ccc(Cl)cc3)nc3ccccc3c2=O)c1,inactive: 61%
8,CCc1cccc(NC(=O)c2cc(-c3ccccc3)n[nH]2)c1,inactive: 90%
9,COc1cc(NC(C)=O)ccc1-c1cc2ccccc2oc1=O,inactive: 96%
10,O=C(Nc1cccc(Cl)c1)C1CCN(c2nc3ccccc3nc2C(F)(F)F)CC1,inactive: 70%
11,COc1ccccc1Cn1ccn(CC(=O)Nc2c(C)cc(C)cc2C)c(=O)c1=O,active: 41%
12,CC(C)C(=O)NC1CC(=O)N(c2ccc3c(c2)OCCO3)C1 (configuration not stated),inactive: 116%
13,Cc1nnc(N2CCN(c3ccc(Cl)cc3)CC2)c2c1nnn2Cc1ccc(F)cc1,inactive: 77%
14,Oc1ccc(Nc2nc(-c3ccc(O)cc3)cs2)cc1,active: 1%
15,COc1cccc(C(c2sc3nc(-c4ccco4)nn3c2O)N2CCCC2)c1 (configuration not stated),inactive: 71%
16,Cc1ccc(-n2nc(C)c3c(C)cc(=O)n(CC(=O)Nc4ccc(C(C)C)cc4)c32)cc1,inactive: 107%
17,CN(C1CCCCC1)S(=O)(=O)c1ccc(F)c(C(=O)Nc2ccc(C(F)(F)F)cc2)c1,inactive: 83%
18,COc1ccc(NC(=O)c2c(NCc3cccs3)sc3c2CCCCC3)cc1,inactive: 72%
19,Cc1c(C(=O)Nc2cccc(F)c2)sc2nc(-c3cc4ccccc4oc3=O)[nH]c(=O)c12,active: 37%

row,Structure (SMILES),survival
1,CC1CCCCN1C(=O)c1ccc2c(c1)N(Cc1ccc(Cl)cc1)C(=O)c1ccccc1S2=O (configuration not stated),inactive: 97%
2,COc1cc(OC)cc(C(=O)NCCc2csc(-c3cccc(C)c3)n2)c1,inactive: 88%
3,CCc1ccc(NC(=O)C(=O)NCCc2sc(-c3ccc(OC)c(OC)c3)nc2C)cc1,inactive: 78%
4,O=C(O)C1C2C=CC(O2)C1C(=O)N1CCOCC1 (configuration not stated),inactive: 94%
5,CN(C)c1ccc(CN2CCc3nc(N4CCN(c5ccccn5)CC4)ncc3C2)cc1,inactive: 83%
6,Cc1nc2c(c(SCC(=O)Nc3ccccc3C(F)(F)F)n1)CCC2,inactive: 60%
7,CC(C)N(Cc1ccccc1)C(=O)c1cc2ccc3cccnc3c2[nH]1,inactive: 81%
8,CCOc1ccccc1N1CC(c2nc3ccccc3n2CCCOc2ccccc2)CC1=O (configuration not stated),inactive: 68%
9,CCC(CC)C(=O)Nc1ccc(OCc2cc(=O)n3ccc(C)cc3n2)cc1,inactive: 126%
10,CCOC(=O)C1CCN(C(=O)c2nn(-c3ccc(C)cc3)c(=O)c3c2c2ccccc2n3C)CC1,inactive: 92%
11,CCCCNC(=O)c1cnc2sc(N3CCCCC3)nn2c1=O,inactive: 80%
12,Cc1ccccc1Cn1c(=O)n(Cc2ccco2)c(=O)c2oc3ccccc3c21,inactive: 88%
13,O=C(c1ccc2c(c1)CCN2S(=O)(=O)c1ccc(Cl)cc1)N1CCN(c2ccccc2F)CC1,inactive: 61%
14,COc1ccc(Nc2ncc(C(=O)N3CCN(c4ccc(OC)cc4)CC3)c3ccccc23)cc1,inactive: 74%
15,Cc1cc(NC(=O)c2cc(-c3ccc(Cl)cc3)on2)n(-c2ccccc2)n1,inactive: 62%
16,COc1ccc(CNC(=O)Cc2ccc(NC(=O)N3CCSc4ncccc43)cc2)cc1OC,inactive: 88%
17,COC(=O)c1cc2oc3ccccc3c2n1CC(=O)Nc1ccc(C)c(F)c1,inactive: 72%
18,COc1ccc(-c2cc(C(=O)Nc3cccnc3)no2)cc1OC,inactive: 79%
19,CC(C)c1nc2sc3c(c2c(=O)n1N)CC(C)(C)OC3,inactive: 58%

row,Structure (SMILES),survival
1,COc1cc(OC)c(NC(=O)c2cc3c(=O)oc4ccc(C)cc4c3s2)cc1Cl,inactive: 66%
2,COc1cc(S(=O)(=O)N(Cc2cccnc2)Cc2ccco2)ccc1-n1cnnn1,inactive: 99%
3,CCN(CC)CCNc1nc2c(c(=O)[nH]c(=O)n2C)n1Cc1ccccc1Cl,inactive: 93%
4,Cc1ccc(-n2ncc3c(NCCO)ncnc32)cc1Cl,inactive: 73%
5,Cn1c(CCCCN)nc2ccccc21,inactive: 95%
6,CC(C)c1ccc(NC(=O)C2CCN(S(=O)(=O)c3cccc4nonc34)CC2)cc1,inactive: 108%
7,Cc1ccccc1Nc1c(-c2ccc(Cl)cc2)nc2c(C)cccn12,inactive: 69%
8,Cc1ccc(N2C(=O)CSC23C(=O)N(Cc2ccccc2F)c2ccccc23)cc1F (configuration not stated),inactive: 84%
9,O=C(CN1C(=O)c2ccccc2C1=O)Nc1ccccc1C(=O)N1CCCC1,inactive: 78%
10,COc1ccc(NC(=O)Cn2c(=O)n(CCc3ccccc3)c(=O)c3c4c(sc32)CCCC4)cc1,inactive: 93%
11,Cc1ccccc1NC(=O)CSc1cn(CC(=O)N2CCCCCC2)c2ccccc12,inactive: 64%
12,COc1cc2c(=O)c(C(=O)c3ccc(C)c(C)c3)cn(Cc3ccc(F)cc3)c2cc1OC,inactive: 75%
13,CCOc1ccccc1NC(=O)c1ccc2c(c1)CCN2S(=O)(=O)c1ccc(C)cc1,inactive: 62%
14,CCOC(=O)c1c(C)[nH]c(C)c1S(=O)(=O)NCC(=O)Nc1ccc(C)c(N(C)C)c1,inactive: 54%
15,CCOc1cc(CNC(=O)Cn2c(=O)c3cccn3c3ccc(F)cc32)cc(OCC)c1OCC,inactive: 50%
16,CC(C)=NNC(=O)c1nnn(-c2nonc2N)c1CN1CCOCC1,inactive: 96%
17,COc1c(C)cc(Br)cc1C(=O)Nc1ccc(-c2nc3ncccc3o2)cc1,inactive: 50%
18,COc1cc(NC(=O)c2ccc3oc(=O)c(S(=O)(=O)c4ccccc4)cc3c2)cc(OC)c1,inactive: 83%
19,COc1ccc(S(=O)(=O)Nc2cccc(-c3ccc(N4CCC(C)CC4)nn3)c2)c(OC)c1,inactive: 79%
